# Experimental data as given in PMC4336329 (PLoS ONE, 2015).
# Screen size: about 310,000 compounds; about 2,200 (0.71%) showed an effect of 50% or more. Effects have a minus sign here. The list shows a part of the results.
# Target: human ether-à-go-go-related gene (hERG) potassium channel (human, UniProt Q12809)
# Test: primary screen, population patch clamp on CHO cells stably expressing hERG
# Sequence of human ether-à-go-go-related gene (hERG) potassium channel (Q12809 whole entry, looked up): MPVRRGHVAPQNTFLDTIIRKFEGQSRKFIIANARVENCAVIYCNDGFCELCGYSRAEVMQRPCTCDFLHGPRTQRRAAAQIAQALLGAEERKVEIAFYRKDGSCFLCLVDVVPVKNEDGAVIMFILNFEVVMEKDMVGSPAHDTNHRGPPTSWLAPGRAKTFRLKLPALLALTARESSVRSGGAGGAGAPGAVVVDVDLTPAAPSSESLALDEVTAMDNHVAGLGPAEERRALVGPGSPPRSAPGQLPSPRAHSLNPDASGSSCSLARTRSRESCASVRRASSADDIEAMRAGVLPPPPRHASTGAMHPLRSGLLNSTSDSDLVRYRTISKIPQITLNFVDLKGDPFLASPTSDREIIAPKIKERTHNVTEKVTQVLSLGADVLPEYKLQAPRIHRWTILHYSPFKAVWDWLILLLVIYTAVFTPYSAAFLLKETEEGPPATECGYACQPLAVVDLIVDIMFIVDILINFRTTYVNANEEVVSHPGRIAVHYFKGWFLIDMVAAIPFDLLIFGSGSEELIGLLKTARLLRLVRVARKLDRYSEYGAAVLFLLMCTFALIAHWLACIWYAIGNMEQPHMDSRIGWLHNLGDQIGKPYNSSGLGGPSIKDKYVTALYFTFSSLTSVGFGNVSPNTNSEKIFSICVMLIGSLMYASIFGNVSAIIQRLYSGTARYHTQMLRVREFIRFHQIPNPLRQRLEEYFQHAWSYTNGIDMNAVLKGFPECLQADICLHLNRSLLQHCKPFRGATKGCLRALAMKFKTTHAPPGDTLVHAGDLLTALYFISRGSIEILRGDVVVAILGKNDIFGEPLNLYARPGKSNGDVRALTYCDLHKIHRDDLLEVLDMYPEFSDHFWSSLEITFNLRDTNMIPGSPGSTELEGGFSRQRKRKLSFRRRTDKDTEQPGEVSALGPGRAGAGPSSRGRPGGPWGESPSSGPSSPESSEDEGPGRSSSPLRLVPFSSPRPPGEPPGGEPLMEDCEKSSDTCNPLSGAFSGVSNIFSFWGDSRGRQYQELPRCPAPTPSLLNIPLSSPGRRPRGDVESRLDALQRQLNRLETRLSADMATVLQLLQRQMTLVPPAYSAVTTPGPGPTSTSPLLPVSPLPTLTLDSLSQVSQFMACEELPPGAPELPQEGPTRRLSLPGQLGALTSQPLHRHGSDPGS
row,SMILES,"hERG current change (%, negative = inhibition) at 1uM"
1,COc1ccc(CCNC(=O)Nc2ccc(F)cc2F)cc1OC,15.8%
2,Cc1ccc(NC(=O)N2CCCC2C(=O)NCC2CCCCC2)cc1 (stereo not drawn),14.1%
3,CSc1nc2ccsc2c(=O)n1-c1ccccn1,18.5%
4,CCCCCNC(=O)CN(c1ccc2c(c1)OCO2)S(C)(=O)=O,10.7%
5,CCC1=NC(c2ccccc2OC)N(O)C1(C)C (stereo not drawn),9.36%
6,O=C(N/N=C/c1cc(O)ccc1[N+](=O)[O-])c1ccc2c(c1)OCCO2,0.582%
7,CCCc1ccc(OCC(O)CN2CCCC2)cc1.Cl (stereo not drawn),7.45%
8,O=C(Nc1ccc(S(=O)(=O)NC2=NCCCCC2)cc1)c1cc(S(=O)(=O)N2CCOCC2)ccc1F,-0.49%
9,COc1cc2c(cc1OC)C(C)N(C(=O)c1c(C)noc1C)CC2 (stereo not drawn),11.1%
10,CSc1ccc(S(=O)(=O)N2CCCC2)cc1,14.7%
11,CCN(CC)c1ccc(/C=N/Nc2ccccc2)c(O)c1,7.57%
12,O=C(Nc1cccc2nsnc12)C1CC(=O)N(c2ccccc2)C1 (stereo not drawn),3.06%
13,CCCCCn1c(=O)c(F)cn(Cc2ccc(OC)c([N+](=O)[O-])c2)c1=O,2.31%
14,Cc1cc(NC(=O)CSc2nc3ccccc3n2CC(=O)N2CC(C)CC(C)C2)no1 (stereo not drawn),13.6%
15,Cc1c(C)[n+](=O)c(-c2ccc(Br)cc2)c(C)n1[O-],12.7%
16,Cc1nc2ccccn2c1C(=O)NCCCN1CCOCC1,10.8%
17,Cl.c1cncc(CNC2CCCC2)c1,9.76%
18,CN1C(=O)N(C)C2CC1N(C)C(=O)N2C,9.16%
19,O=C(O)C(=O)O.O=[N+]([O-])c1ccccc1CN1CCN(Cc2c[nH]c3ccccc23)CC1,6.67%

row,SMILES,"hERG current change (%, negative = inhibition) at 1uM"
1,CNC(=O)CSc1nccn1Cc1ccc(Cl)cc1,-1.52%
2,COc1ccc([N+](=O)[O-])cc1NC(=O)COC(=O)c1ccccn1,0.206%
3,O=C(N/N=C/c1ccccn1)c1ccc([N+](=O)[O-])cc1,24.3%
4,Cc1ccc(C(=O)OC2OC(=O)C(Cl)=C2N2CCOCC2)cc1 (stereo not drawn),10%
5,CC(C)[C@H](NC(=O)N1c2ccccc2NC(=O)[C@@H]1C(C)C)C(=O)N1CCC[C@H]1C(=O)O,11.6%
6,CN(C(=O)c1ccncc1)c1nnc(-c2ccccn2)s1,7.02%
7,CN1CC(c2ccccc2)C(c2ccc(Cl)cc2)=N1 (stereo not drawn),5.03%
8,CCCn1c(=S)[nH]c2cc(C(=O)N3CCN(C(=O)OCC)CC3)ccc2c1=O,15.8%
9,COC(=O)c1ccccc1NC(=O)c1ccc2nccnc2c1,-2.37%
10,Cc1cc(C)c(NC(=O)CSc2nnc(-c3ccncc3)n2Cc2ccco2)c(Cl)c1,-38.1%
11,O=C(Oc1ccnc2cc(Cl)ccc12)N1CCCCCC1,2.62%
12,O=C(Nc1cccc(Cl)c1)c1ccc(S(=O)(=O)NCC2CCCO2)cc1 (stereo not drawn),9.78%
13,Cc1ccc(N(Cc2cc3ccc(C)cc3[nH]c2=O)C(=O)c2cccs2)cc1,4.88%
14,Cc1ccc(NC(=S)NCc2ccccn2)cc1,6.04%
15,CCC1=NN(C(=O)C(=O)Nc2ccccc2OC)C(O)(C(F)(F)F)C1 (stereo not drawn),14.5%
16,COCc1cc(C)nc(Oc2ccccc2)c1C#N,15.1%
17,Clc1ccc2c(c1)C1OCCC1C(c1ccco1)N2 (stereo not drawn),9.62%
18,CC(=O)c1ccc(S(=O)(=O)N(C)CCCC(=O)N(C)Cc2ccccc2F)cc1,4.24%
19,C=CCNC(=O)/C(C#N)=C/c1cn(-c2ccccc2)nc1-c1ccc(OC)c([N+](=O)[O-])c1,13.2%

row,SMILES,"hERG current change (%, negative = inhibition) at 1uM"
1,CC(=C1C2C=CC1C1C(=O)NC(=O)C21)c1ccccc1 (stereo not drawn),-4.52%
2,CC(=O)NC(C)c1nc2ccccc2n1CC(=O)NC(C)CCc1ccccc1 (stereo not drawn),2.49%
3,CC(Sc1nnc2ccccn12)C(=O)Nc1ncc(Cl)cc1Cl (stereo not drawn),6.98%
4,CCOC(=O)c1oc2ccc(S(=O)(=O)n3nc(-c4cc(OC)c(OC)c(OC)c4)cc3N)cc2c1C,-5.2%
5,Cl.O[C@@H]1CCCC[C@H]1N1CCC(c2ccccc2)CC1,14%
6,O=C(NC1C2CC3CC(C2)CC1C3)c1ccc2c(c1)OCO2 (stereo not drawn),16%
7,Cc1ccc(N2C(=O)c3ccc(C(=O)N4CCN(c5cccc(C)c5C)CC4)cc3C2=O)cc1,-1.93%
8,COC(=O)Cn1cnc2c(nnn2-c2ccc(OC)cc2)c1=O,20.1%
9,Cc1cc(C)c(S(=O)(=O)N2CCOC2CNC(=O)C(=O)NCCCN2CCOCC2)c(C)c1 (stereo not drawn),14.3%
10,COc1ccc(NC(=O)C(c2ccc(OC)cc2)N(C)C(=O)CC2NC(=O)NC2=O)cc1 (stereo not drawn),17.1%
11,Cc1noc(C)c1COC(=O)c1cccc(S(=O)(=O)N2CCCCCC2)c1,0.182%
12,CN(C)CCN1C(=O)C(=O)/C(=C(/O)c2ccc3c(c2)OCCO3)C1c1ccccn1 (stereo not drawn),13.3%
13,CC(C)CN1C(=O)NC2(CCCc3ccccc32)C1=O (stereo not drawn),1.77%
14,O=C(N/N=C/c1coc2ccccc2c1=O)c1cn(-c2ccccc2)nc1-c1ccccc1,14.4%
15,CCOc1ccc(S(=O)(=O)N(C)CC(=O)N2CCN(CC)CC2)cc1,9.39%
16,O=C(CSc1ccc(Cl)cc1)Nc1cccc(NC(=O)c2ccco2)c1,3.88%
17,O=C1N=C(N2CCCCC2)S/C1=C\c1ccccc1F,8.44%
18,CC(=O)c1cccc(NC(=O)Cn2cnc(S(=O)(=O)N3CCCCC3)c2)c1,14.1%
19,CCOC(=O)CSc1nc2cc3c(cc2cc1C)OCO3,9.2%
